PubChem BioAssay (NCATS)
“And” between values parts separate entries of the source, which are not always exact repeats. Equal entries are not always repeated. Inconclusive results, whose numbers are uncertain, are shown with a selection of clear calls. A potency beside an inconclusive call is a rough fit, not a confirmed value. The source made the active and inactive calls. The call rests on the fitted dose curve; in most records, active means well fitted curve in the direction sought with a large enough effect; inconclusive means small, poorly fitted or top-dose-only effect, or another doubt; inactive means no such curve, though single readings can be large; an effect the other way counts as inactive or inconclusive.

What was measured:
[1] = Viability qHTS for spleen associated tyrosine kinase inhibitor (SYKi) naive MV4-11 cells (AID 1963823); further: nearly all actives have a fitted effect of over 40% in size
Procedure, shortened: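 Luminescence from CellTiter-Glo, developed 10 min at room temperature, gave viability of MV4-11 cells never exposed to SYK inhibitor. Cells (500/well) had been incubated with compounds for 72 hr under standard culture conditions.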

[2] = Cellular viability qHTS for adrenocortical cancer (ACC) cell line NCI-H295R (AID 1963990); conditions: CellTiter-Glo ATP luminescence, 48 h; activity change, negative = viability loss: at 46.1 µM (top of the series); further: nearly all actives have a fitted effect of over 60% in size;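 on activity change, negative = viability loss: 0% = DMSO only wells and -100% = full killing with cytotoxic reference compound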
Procedure, shortened: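 Luminescent ATP read-out (CellTiter-Glo, 20 min RT) after 48 h drug exposure of NCI-H295R cells; a titration up to 46 uM final. Data normalized to doxorubicin (100% inhibition) and DMSO (0%); 4-parameter fit gives IC50, max response.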

[3] = Cellular viability qHTS for adrenocortical cancer (ACC) cell line SW-13 (AID 1963989); conditions: SW-13 ACC cells viability, CellTiter-Glo, 48 h; activity (max response): active compounds read low; further: nearly all actives have a fitted effect of over 65% in size;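 on activity (max response): cells grown in serum-free medium with ITS supplement; on the % scale 0 is the no-effect control and ±100 the full control effect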
Procedure, shortened: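 SW-13 cells in ITS-supplemented serum-free DMEM were plated overnight, then exposed for 48 h at 37C to compound titrations (up to 46 uM final). Viability was read by CellTiter-Glo luminescence; four-parameter logistic fits gave IC50 and efficacy.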
Potency means the concentration at half of the fitted maximal effect; tags describe the fitted curve by direction and shape.

| Compound | Potency [1] | Potency [2] | Potency [3] | activity (max response) [3] |
| --- | --- | --- | --- | --- |
| COC[C@H]1OC(=O)c2coc3c2[C@@]1(C)C1=C(C3=O)[C@@H]2CC[C@H](O)[C@@]2(C)C[C@H]1OC(C)=O | active: 1.66 µM | inconclusive: 28.2 µM [cytotoxic, single point] | – | – |
| c1cc2c(c(N3CCNCC3)c1)OCCO2 | inconclusive: 0.0008 µM | inconclusive: 0.92 µM [cytotoxic, full curve, poor fit] | – | – |
| Cc1nnc2n1-c1sc(CCc3ccc(CC(C)C)cc3)cc1C(c1ccccc1Cl)=NC2C (configuration not stated) | active: 5.8 µM | – | inconclusive: 18.4 µM [cytotoxic, single point] | – |
| C[C@@]12OC(=O)[C@]1([C@@H](O)[C@@H]1C=CCCC1)NC(=O)[C@@H]2CCCl | active: 0.0209 µM | – | active: 0.501 µM | – |
| O=C(Oc1ccc([N+](=O)[O-])cc1)N1CCN(Cc2cccc(Oc3ccccc3)c2)CC1 | active: 16.4 µM | inconclusive: 5.62 µM [cytotoxic, full curve] | inconclusive: 2.82 µM [cytotoxic, full curve] | – |
| Nc1ccc(Sc2ccc(N)cc2)cc1 | inconclusive: 30.6 µM [cytotoxic, partial curve] | inconclusive: 35.5 µM [cytotoxic, partial curve, poor fit] | inconclusive: 35.5 µM [cytotoxic, partial curve, poor fit] | – |
| C[C@@H]1CC[C@@]2(OC1)O[C@H]1C[C@H]3[C@@H]4CC=C5C[C@@H](O[C@@H]6O[C@H](CO)[C@@H](O[C@@H]7O[C@@H](C)[C@H](O)[C@@H](O)[C@H]7O)[C@H](O)[C@H]6O[C@@H]6O[C@@H](C)[C@H](O)[C@@H](O)[C@H]6O)CC[C@]5(C)[C@H]4CC[C@]3(C)[C@H]1[C@@H]2C | active: 1.66 µM | – | active: 3.55 µM | – |
| Clc1ccc(CCC(Cn2ccnc2)Sc2c(Cl)cccc2Cl)cc1 (configuration not stated) | inconclusive: 10.6 µM [cytotoxic, partial curve] | active: 20.6 µM and active: 35.5 µM | – | – |
| CCCCCCCCC(=O)NCc1ccc(O)c(OC)c1 | inactive | inconclusive: 1.3 µM [cytotoxic, full curve] | inconclusive: 1.46 µM [cytotoxic, full curve] | – |
| CC1(C)C(C=C(Cl)Cl)C1C(=O)OC(C#N)c1cccc(Oc2ccccc2)c1 (configuration not stated) | active: 2.66 µM | inactive | – | – |
| CCC1(CC)C(=O)NC(=O)NC1=O | inconclusive: 10.6 µM [cytotoxic, partial curve] | inconclusive: 29.1 µM [cytotoxic, single point] | – | – |
| Sc1ccccc1Cl | inconclusive: 0.0017 µM [rising, full curve, poor fit] | inconclusive: 29.1 µM [cytotoxic, single point] | inconclusive: 20.6 µM [cytotoxic, single point] | – |
| CC1=C2C[C@H]3[C@@H](CC=C4C[C@@H](O)CC[C@@]43C)[C@@H]2CC[C@]12O[C@@H]1C[C@H](C)CN[C@H]1[C@H]2C | inconclusive: 16.6 µM [cytotoxic, partial curve] | – | – | inactive: -8.25% |
| C[C@]12Cc3nonc3C[C@@H]1CC[C@@H]1[C@@H]2CC[C@@]2(C)[C@H]1CC[C@]2(C)O | inconclusive: 10.6 µM [cytotoxic, partial curve, poor fit] | – | inconclusive: 20.6 µM [cytotoxic, single point] | – |
| O=C(NCCCNc1nc(Nc2ccc(N3CCOCC3)cc2)ncc1C1CC1)C1CCC1 | active: 0.118 µM | inactive | inconclusive: 8.91 µM [cytotoxic, partial curve] | – |
| CCC(C)(C)c1ccc(O)cc1 | inconclusive: 18.8 µM [cytotoxic, partial curve, poor fit] | inactive | – | – |
| CCC(=O)OC1(c2ccccc2)CCN(C)CC1 | inactive | inactive | – | – |
| CC[C@H]1/C=C\C=C/C[C@@H](C)[C@H](O)[C@@](C)(O)C(=O)[C@@H](C)[C@H](O)[C@@H](C)C(=O)[C@@H](C)[C@H](O)[C@@H](C)/C=C\C(=O)O[C@@H]2[C@H](C)[C@H](CC1)O[C@]1(CC[C@H](C)[C@H](C[C@@H](C)O)O1)[C@H]2C | active: 0.0092 µM | inconclusive: 3.55 µM [cytotoxic, partial curve, poor fit] | inconclusive: 0.631 µM [cytotoxic, partial curve, poor fit] | – |
